From article PMC10386414 (Molecules, 2023)

Columns and labels:
[1] = target: T1, human δ-opioid receptor (OPRD1) (Homo sapiens, UniProt P41143); details: for DOR Antagonist %Imax ± SEM: versus EC50 of SNC80, Imax normalized to naltrexone
[2] = target: T1, human δ-opioid receptor (OPRD1); experiment: cell-based; details: for Emax: CHO-K1, read-out: DOR Agonist %Emax ± SEM
[3] = target: T1, human δ-opioid receptor (OPRD1); experiment: cell-based
[4] = target: human κ-opioid receptor (OPRK1) (Homo sapiens, UniProt P41145); details: for KOR antagonist activity (in words): cAMP assay
[5] = target: T1, human δ-opioid receptor (OPRD1); details: cAMP assay

Sequence of UniProt P41145 (P41145 whole entry): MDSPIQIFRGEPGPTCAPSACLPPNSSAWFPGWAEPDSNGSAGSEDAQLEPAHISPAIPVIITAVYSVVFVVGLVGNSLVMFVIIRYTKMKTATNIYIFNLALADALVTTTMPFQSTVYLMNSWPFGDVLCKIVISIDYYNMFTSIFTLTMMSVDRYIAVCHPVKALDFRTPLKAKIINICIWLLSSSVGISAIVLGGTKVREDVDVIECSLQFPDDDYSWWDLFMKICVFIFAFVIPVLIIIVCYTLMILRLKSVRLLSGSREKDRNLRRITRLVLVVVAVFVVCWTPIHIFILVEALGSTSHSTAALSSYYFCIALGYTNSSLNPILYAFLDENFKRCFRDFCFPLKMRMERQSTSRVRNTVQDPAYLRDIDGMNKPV
T1 sequence (P41143 whole entry): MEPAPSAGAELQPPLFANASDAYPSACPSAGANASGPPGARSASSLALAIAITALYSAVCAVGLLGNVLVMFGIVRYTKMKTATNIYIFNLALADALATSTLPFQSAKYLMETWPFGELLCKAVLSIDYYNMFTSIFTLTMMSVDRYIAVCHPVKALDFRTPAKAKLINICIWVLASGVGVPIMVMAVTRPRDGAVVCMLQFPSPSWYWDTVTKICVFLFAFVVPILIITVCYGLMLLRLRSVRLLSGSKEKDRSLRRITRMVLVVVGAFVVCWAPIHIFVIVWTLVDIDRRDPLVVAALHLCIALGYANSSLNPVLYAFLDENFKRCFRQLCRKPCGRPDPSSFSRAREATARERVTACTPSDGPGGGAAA

Question: What does the source list for `C[C@@H]1[C@H]2CCC[C@]1(c1cccc(O)c1)CCN2CCc1ccccc1` [compound 56, 3-((1R,5S,9S)-9-Methyl-2-phenethyl-2-azabicyclo[3.3.1]nonan-5-yl)phenol]?
Answer: DOR Antagonist %Imax ± SEM [1]: 196 ± 23%; EC50 [2]: > 10000 nM; IC50 [3]: 489 ± 147 nM; IC50 [4]: 14 ± 7 nM

Question: With `CC[C@H]1[C@@H]2CCC[C@@]1(c1cccc(O)c1)CCN2CCc1ccccc1` [compound 15, 3-((1S,5R,9R)-9-Ethyl-2-phenethyl-2-azabicyclo[3.3.1]nonan-5-yl)phenol] as the compound, how does the “DOR Antagonist %Imax ± SEM” value [1] read?
Answer: Its value is 157 ± 11%.

Question: And the EC50 [2]?
Answer: The EC50 was over 10000 nM.

Question: What about the IC50 [3] of the same compound?
Answer: Its IC50 is 75 ± 30 nM.

Question: And the IC50 [4]?
Answer: The IC50 was 11 ± 6 nM.

Question: Which results are given for `CC[C@@H]1[C@H]2CCC[C@]1(c1cccc(O)c1)CCN2CCc1ccccc1` [compound 38, 3-((1R,5S,9S)-9-Ethyl-2-phenethyl-2-azabicyclo[3.3.1]nonan-5-yl)phenol]?
Answer: DOR Antagonist %Imax ± SEM [1]: 149 ± 38%; EC50 [2]: > 10000 nM; IC50 [3]: 435 ± 132 nM; IC50 [4]: 48 ± 21 nM

Question: For `C[C@@H]1[C@@H]2CCC[C@@]1(c1cccc(O)c1)CCN2CCc1ccccc1` [compound 43, 9S-methyl-1S,5R-5-phenylmorphan], which EC50 [2] is on record?
Answer: Its EC50 is 699 ± 388 nM.

Question: And the Emax [2]?
Answer: Its Emax is 51%.

Question: And the IC50 [4]?
Answer: The IC50 was 369 ± 187 nM.

Question: `CC[C@H]1[C@H]2CCC[C@]1(c1cccc(O)c1)CCN2CCc1ccccc1` [compound 35, 3-((1R,5S,9R)-9-Ethyl-2-phenethyl-2-azabicyclo[3.3.1]nonan-5-yl)phenol] was tested. Which “DOR agonist activity (in words)” value [5] did it give?
Answer: Its value is “low efficacy DOR partial agonist”.

Question: What about the “DOR Antagonist %Imax ± SEM” value [1] of the same compound?
Answer: Its value is 110 ± 5%.

Question: And the EC50 [2]?
Answer: The EC50 was 2.9 ± 0.9 nM.

Question: What about the Emax [2] of the same compound?
Answer: Its Emax is 29 ± 20%.

Question: What about the IC50 [3] of the same compound?
Answer: The IC50 was 42 ± 9 nM.

Question: What about the IC50 [4] of the same compound?
Answer: The IC50 was 112 ± 57 nM.

Question: And the “KOR antagonist activity (in words)” value [4]?
Answer: The value was “weak antagonist activity at KOR”.

Question: `CCCC[C@H]1[C@H]2CCC[C@]1(c1cccc(O)c1)CCN2CCc1ccccc1` [compound 37, 3-((1R,5S,9R)-9-Butyl-2-phenethyl-2-azabicyclo[3.3.1]nonan-5-yl)phenol] was tested. Which “DOR Antagonist %Imax ± SEM” value [1] did it give?
Answer: Its value is 159 ± 13%.

Question: And the EC50 [2]?
Answer: The EC50 was over 10000 nM.

Question: And the IC50 [3]?
Answer: The IC50 was 107 ± 27 nM.

Question: And the IC50 [4]?
Answer: The IC50 was over 10000 nM.

Question: With `CCC[C@H]1[C@@H]2CCC[C@@]1(c1cccc(O)c1)CCN2CCc1ccccc1` [compound 16] as the compound, how does the “DOR Antagonist %Imax ± SEM” value [1] read?
Answer: The value was 96 ± 4%.

Question: And the EC50 [2]?
Answer: The EC50 was over 10000 nM.

Question: What about the IC50 [3] of the same compound?
Answer: The IC50 was 84 ± 33 nM.

Question: And the IC50 [4]?
Answer: The IC50 was 12 ± 5 nM.

Question: Which results are given for `C[C@H]1[C@@H]2CCC[C@@]1(c1cccc(O)c1)CCN2CCc1ccccc1` [compound 48, 3-((1S,5R,9R)-9-Methyl-2-phenethyl-2-azabicyclo[3.3.1]nonan-5-yl)phenol]?
Answer: DOR antagonist activity (in words) ([1]; cAMP assay): very little DOR antagonist activity; DOR Antagonist %Imax ± SEM [1]: 144 ± 5%; EC50 [2]: > 10000 nM; IC50 [3]: 194 ± 48 nM; IC50 [4]: 2.6 ± 0.5 nM; KOR antagonist activity (in words) [4]: about as potent as the reference kappa ligand, nor-BNI

Question: What does the source list for `CCCC[C@@H]1[C@@H]2CCC[C@@]1(c1cccc(O)c1)CCN2CCc1ccccc1` [compound 20, 3-((1S,5R,9S)-9-Butyl-2-phenethyl-2-azabicyclo[3.3.1]nonan-5-yl)phenol]?
Answer: DOR Antagonist %Imax ± SEM [1]: 122 ± 21%; EC50 [2]: > 10000 nM; IC50 [3]: 2080 ± 1060 nM

Question: How did the “DOR Antagonist %Imax ± SEM” value [1] turn out when `CCCC[C@H]1[C@@H]2CCC[C@@]1(c1cccc(O)c1)CCN2CCc1ccccc1` [compound 17, 3-((1S,5R,9R)-9-Butyl-2-phenethyl-2-azabicyclo[3.3.1]nonan-5-yl)phenol] was run?
Answer: Its value is 125 ± 8%.

Question: What about the EC50 [2] of the same compound?
Answer: Its EC50 is over 10000 nM.

Question: What about the IC50 [3] of the same compound?
Answer: Its IC50 is 30 ± 9 nM.

Question: And the IC50 [4]?
Answer: The IC50 was 5.2 ± 0.6 nM.

Question: What does the source list for `CC[C@@H]1[C@@H]2CCC[C@@]1(c1cccc(O)c1)CCN2CCc1ccccc1` [compound 18, 3-((1S,5R,9S)-9-Ethyl-2-phenethyl-2-azabicyclo[3.3.1]nonan-5-yl)phenol]?
Answer: EC50 [2]: 426 ± 148 nM; Emax [2]: 69%

Question: For `CCC[C@@H]1[C@@H]2CCC[C@@]1(c1cccc(O)c1)CCN2CCc1ccccc1` [compound 19, 3-((1S,5R,9S)-2-Phenethyl-9-propyl-2-azabicyclo[3.3.1]nonan-5-yl)phenol], which “DOR Antagonist %Imax ± SEM” value [1] is on record?
Answer: The value was 112± 10%.

Question: What about the EC50 [2] of the same compound?
Answer: The EC50 was over 10000 nM.

Question: And the IC50 [3]?
Answer: Its IC50 is 990 ± 389 nM.

Question: Which results are given for `CCC[C@H]1[C@H]2CCC[C@]1(c1cccc(O)c1)CCN2CCc1ccccc1` [compound 36, 3-((1R,5S,9R)-2-Phenethyl-9-propyl-2-azabicyclo[3.3.1]nonan-5-yl)phenol]?
Answer: DOR Antagonist %Imax ± SEM [1]: 147± 28%; EC50 [2]: > 10000 nM; IC50 [3]: 162 ± 47 nM; IC50 [4]: 204 ± 77 nM

Question: What does the source list for `CCCC[C@@H]1[C@H]2CCC[C@]1(c1cccc(O)c1)CCN2CCc1ccccc1` [compound 40, 3-((1R,5S,9S)-9-Butyl-2-phenethyl-2-azabicyclo[3.3.1]nonan-5-yl)phenol]?
Answer: DOR Antagonist %Imax ± SEM [1]: 178 ± 15%; EC50 [2]: > 10000 nM; IC50 [3]: 681 ± 73 nM; IC50 [4]: 604 ± 234 nM

Question: Which “DOR Antagonist %Imax ± SEM” value [1] does the source give for `CCC[C@@H]1[C@H]2CCC[C@]1(c1cccc(O)c1)CCN2CCc1ccccc1` [compound 39, 3-((1R,5S,9S)-2-Phenethyl-9-propyl-2-azabicyclo[3.3.1]nonan-5-yl)phenol] here?
Answer: The value was 170± 6%.

Question: And the EC50 [2]?
Answer: The EC50 was over 10000 nM.

Question: And the IC50 [3]?
Answer: The IC50 was 368 ± 54 nM.

Question: And the IC50 [4]?
Answer: Its IC50 is 54 ± 26 nM.
